From the supplement of paper PMC9446081
Screen size: about 39,000 compounds; about 220 (0.56%) showed activity. The list shows a part of the results.
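Further: static incubation at 37 °C against the wild-type strain, values averaged over two biological replicates.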

These compounds were tested on Escherichia coli K-12 BW25113 (assay: relative growth (OD600 normalised to plate interquartile mean) (fraction); higher = less growth inhibition, active = 0.2 or less). Conditions: 50 µM; LB; incubation time: overnight (16-24 h).
`C[C@H](CO)N1C[C@H](C)[C@H](CN(C)C(=O)NC2CCCCC2)Oc2ccc(NC(=O)Cn3cnnn3)cc2C1=O` was tested, and the relative growth was inactive: 1.02.
`O=C(C1=C[C@H](c2coc3ccccc3c2=O)C[C@H](OCc2ccc(CO)cc2)O1)N1CCCCCCC1` was tested, and the relative growth was inactive: 1.02.
With `Cc1noc(C)c1NC(=O)N(C)C[C@H]1Oc2c(NS(=O)(=O)c3ccccc3)cccc2C(=O)N([C@H](C)CO)C[C@H]1C` the relative growth was inactive: 1.02.
`C[C@@H]1CN([C@H](C)CO)C(=O)Cc2cc(NC(=O)Nc3ccc4c(c3)OCO4)ccc2O[C@@H]1CN(C)C(=O)Nc1cccc2ccccc12` was tested, and the relative growth was inactive: 1.04.
`C[C@H](CO)N1C[C@H](C)[C@H](CN(C)CC2CCCCC2)OCCCC[C@H](C)Oc2ccc(NS(=O)(=O)c3cccs3)cc2C1=O` was tested, and the relative growth was inactive: 1.01.
`Cc1ccc(S(=O)(=O)N[C@H]2C=C[C@@H](CC(=O)NCCN3CCCCC3)O[C@H]2CO)cc1` was tested, and the relative growth was inactive: 1.02.
For `O=C(O)c1ccco1`, the relative growth was inactive: 0.988.
`CCOC(=O)N(C)C[C@H]1OCc2cn(nn2)CCCC(=O)N([C@@H](C)CO)C[C@@H]1C` was tested, and the relative growth was inactive: 0.988.
For `CCC(=O)N1CCC[C@H](C(=O)O)C1`, the relative growth was inactive: 0.987.
`C[C@@H]1CN([C@@H](C)CO)S(=O)(=O)c2ccc(C#C[C@@H](C)O)cc2O[C@H]1CN(C)C(=O)C1CCCCC1` was tested, and the relative growth was inactive: 1.01.
`C[C@@H]1CN([C@@H](C)CO)C(=O)c2cccc(NC(=O)c3cnccn3)c2O[C@H]1CN(C)Cc1ccc2c(c1)OCO2` was tested, and the relative growth was inactive: 0.998.
With `C[C@@H]1CN([C@H](C)CO)C(=O)c2cccc(NS(=O)(=O)c3cccs3)c2O[C@@H]1CN(C)Cc1ccc(Cl)c(Cl)c1` the relative growth was inactive: 0.999.
For `O=C(O)/C=C\C(=O)NCc1ccccc1`, the relative growth was inactive: 0.96.
In the case of `C/C=C/c1cccc(-c2nc(C(=O)NCc3ccc(OC)cc3)cc3c2[C@H](CCO)N([S@@](=O)C(C)(C)C)C3)c1`, the relative growth is reported as inactive: 1.02.
`Cn1c(=O)c2c(ncn2C[C@@H](O)CO)n(C)c1=O` was tested, and the relative growth was inactive: 1.02.
`CO[C@@H]1CN(C)C(=O)c2cc(NC(=O)NC(C)C)ccc2OC[C@H](C)N(Cc2ccc(-c3ccccn3)cc2)C[C@@H]1C` was tested, and the relative growth was inactive: 0.979.
In the case of `Cc1ccc(S(=O)(=O)N(C)C[C@@H]2Oc3ccc(NS(=O)(=O)c4cn(C)cn4)cc3CC(=O)N([C@H](C)CO)C[C@H]2C)cc1`, the relative growth is reported as inactive: 1.02.
With `Cc1ccc(S(=O)(=O)N(C)C[C@@H]2Oc3ccc(NS(=O)(=O)c4c(C)noc4C)cc3CC(=O)N([C@H](C)CO)C[C@H]2C)cc1` the relative growth was inactive: 0.983.
`C[C@H]1CN([C@@H](C)CO)C(=O)Cc2cc(NC(=O)Nc3cccc4ccccc34)ccc2O[C@@H]1CN(C)C(=O)Nc1cccc2ccccc12` was tested, and the relative growth was inactive: 0.984.
`C[C@@H]1CN([C@H](C)CO)C(=O)c2cc(NC(=O)Nc3ccc4c(c3)OCO4)ccc2O[C@@H]1CN(C)C(=O)Nc1cccc2ccccc12` was tested, and the relative growth was inactive: 1.02.
In the case of `COc1ccc(S(=O)(=O)Nc2cccc3c2O[C@H](CN(C)CC2CC2)[C@@H](C)CN([C@H](C)CO)C3=O)cc1`, the relative growth is reported as inactive: 0.985.
`C[C@H](CO)N1C[C@H](C)[C@H](CN(C)S(C)(=O)=O)Oc2ccc(NS(=O)(=O)c3ccccc3)cc2CC1=O` was tested, and the relative growth was inactive: 1.02.
For `C[C@H](CO)N1C[C@H](C)[C@@H](CN(C)C(=O)c2cnccn2)Oc2ncc(C#Cc3ccccn3)cc2C1=O`, the relative growth was inactive: 1.
With `C[C@@H]1CCCCO[C@@H](CN(C)C(=O)CCCN(C)C)[C@@H](C)CN([C@@H](C)CO)C(=O)c2cc(NC(=O)Nc3ccc(C(F)(F)F)cc3)ccc2O1` the relative growth was inactive: 0.951.
`COc1cccc(-c2ccc3c(c2)O[C@@H](CN(C)Cc2cncnc2)[C@@H](C)CN([C@H](C)CO)S3(=O)=O)c1` was tested, and the relative growth was inactive: 1.
`CCC(=O)N[C@H]1C=C[C@H](CC(=O)OC)O[C@H]1CO` was tested, and the relative growth was inactive: 0.995.
In the case of `C[C@@H]1CCCCO[C@H](CN(C)Cc2ccc(C(=O)O)cc2)[C@@H](C)CN([C@H](C)CO)C(=O)c2cc(NC(=O)Nc3ccc(C(F)(F)F)cc3)ccc2O1`, the relative growth is reported as inactive: 0.96.
For `C[C@H]1CCCCO[C@H](CN(C)CC2CCCCC2)[C@@H](C)CN([C@@H](C)CO)C(=O)c2cc(NS(=O)(=O)c3ccccc3)ccc2O1`, the relative growth was inactive: 0.999.
For `C[C@H](CO)N1C[C@H](C)[C@@H](CN(C)C(=O)c2cnccn2)Oc2cc(Br)ccc2S1(=O)=O`, the relative growth was inactive: 0.986.
`CCC1OC(=O)CC(O)C(C)C(OC2OC(C)C(OC3CC(C)(O)C(O)C(C)O3)C(N(C)C)C2O)C(CC=O)CC(C)C(=O)C=CC(C)=CC1COC1OC(C)C(O)C(OC)C1OC.O=C(O)C(O)C(O)C(=O)O` (stereo not given) was tested, and the relative growth was inactive: 1.09.
